Data on 38 compounds can be found in PubChem BioAssay AID485298 (National Center for Advancing Translational Sciences (NCATS), 2010).

Molecules are shown by their SMILES. Screen size: about 320,000 compounds; about 740 (0.23%) were called active. About 2% were inconclusive and are not listed. Calls come from the whole dose curve; as a rule, active = well fitted activation curve with a large enough effect; inconclusive = small, poorly fitted or top-dose-only effect; inactive = no such curve, though single readings can be large or run the other way. This is a selection; strong and weak results do not stand in their true shares. Entries without a call were filed so in the source.
Potency is the fitted concentration of half-maximal effect.

This assay can be described thus: qHTS Assay for Small Molecule Inhibitors of Mitochondrial Division or Activators of Mitochondrial Fusion. For growth rescue (activation): % of control where 0% means no effect. Note: nearly all actives have a fitted effect of over 45% in size. The following applies: S. cerevisiae fusion-defective mutant growth rescue, CellTiterGlo 48 h; growth rescue (activation): at 46.1 µM (top of the series). The method in brief: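 Temperature-sensitive fusion-defective S. cerevisiae (e.g. fzo1-1, mgm1-5) were grown with compound in YPEG medium (3% ethanol, 3% glycerol) for 48 hours at 37C. Growth rescue was measured as viability by CellTiterGlo luminescence after 10 minutes at ambient.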
A general note: In qHTS, concentration-response curves come from the screen itself.
Turning to `CC(=O)c1ccc(C(=O)Nc2nnc(-c3ccc(Cl)cc3)o2)cc1`, the growth rescue (activation) is -8.79%. The same measure, in the same setting: the value for `O=C(NCCc1c[nH]c2ccccc12)c1cncc(Br)c1` was 40.3%; that for `Nc1nc(Cl)nc2c1ncn2[C@@H]1O[C@H](COP(=O)(O)OP(=O)(O)OP(=O)(O)O)[C@@H](O)[C@H]1O` was inactive: -48.8%. Same read-out and setting: the value for `CC(=O)c1cccc(OCC(O)CNCC2COc3ccccc3O2)c1` (stereo not drawn) was 14.9%; that for `Cc1cc(OCC(=O)c2ccc(Br)cc2)ccc1N1C(=O)CCC1=O` was 33.2%; that for `O=C(Cc1ccccc1)Nc1ccc(S(=O)(=O)N2CCCC2)cc1` was 31.9%. With `CC(C)(C)N(Cc1ccccc1)C(=O)CSc1ncn[nH]1`, the Potency is active: 31.6 µM. For the compound `COc1ccc(CC(=O)Nc2ccccc2C(C)=O)cc1S(=O)(=O)N1CCOCC1`, the “growth rescue (activation)” value is inactive: 12.3%.

With `C#CCOCCOCCOCCNc1nc(N2CCN(C(=O)[C@H](CCC(=O)O)n3cc(C(N)Cc4ccc(O)cc4)nn3)CC2)nc(N2CCN(C(=O)[C@H](CCCCN)n3cc(C(N)[C@H](C)CC)nn3)CC2)n1` (stereo partly drawn), the “growth rescue (activation)” value was inactive: -65.5%.

For `Fc1cccc(/C=N/Nc2ccc(Cl)nn2)c1`, the growth rescue (activation) was 4.53%. Still for that read-out and setting: the value for `CC1CCc2c(C(=O)NCC3CCCO3)csc2C1` (stereo not drawn) was 51.7%; that for `C/C=N/NC(=O)CCCC(=O)N/N=C/C` was 21.6%. Regarding `COc1cccc(C(=O)NCC(c2cccs2)N2CCc3ccccc32)c1` (stereo not drawn), the Potency is active: 15.8 µM.

As for `CC(=O)c1ccc(NC(=O)c2noc3c2CCC3)cc1`, the growth rescue (activation) was found to be 13.4%.

Take `Cc1[nH]n(C(N)=S)c(=O)c1N=Nc1ccc([N+](=O)[O-])cc1Cl`: the “growth rescue (activation)” value is inactive: -76.5%. Regarding `CCOC(=O)CC1(NC(=O)C2CCC(=O)N(CCc3ccc(OC)cc3)C2)CCCCC1` (stereo not drawn), the “growth rescue (activation)” value is inactive: 18.5%. On the same count and under the same terms, with `COC(=O)c1cc(S(=O)(=O)NCCN2CCN(c3ccccc3F)CC2)c[nH]1` the figure was 29.9%; with `Cc1oc(-c2ccccc2F)nc1CS(=O)CC(=O)NCCN1CCCCC1C` (stereo not drawn), 44.9%. On the same count and under the same terms, the value for `CC(C)CN(c1ccccc1)S(=O)(=O)c1nnc(NC(=O)c2ccco2)s1` was 22.8%. Regarding `O=C(CSc1nc2ccccc2o1)Nc1nc(-c2ccccc2)cs1`, the Potency is active: 15.8 µM.

As to `Cc1c(C(=O)N2CCOCC2)c(S(=O)(=O)Nc2cccc(F)c2)c(C)n1C`, the growth rescue (activation) was 17.2%.

With `S=c1[nH]nc(-c2cc3ccccc3o2)n1Cc1ccccc1`, the Potency was active: 14.1 µM. As for `CC(=O)NNC(=O)CN1C(=O)/C(=C/c2ccccc2)SC1=S`, the growth rescue (activation) was found to be 8.76%. `COc1ccc(/C=C/C(=O)c2ccc([N+](=O)[O-])o2)cc1OC`: the “growth rescue (activation)” value was inactive: -31%.

For the compound `COc1ccc(C2=CC(=O)C[C@H](c3ccc(OC)cc3)C2)cc1`, the “growth rescue (activation)” value was inactive: 23.8%.

On to `Cc1ccc(-c2c(C(=O)NCc3ccccc3)oc(=O)c3ccccc23)cc1`, for which the “growth rescue (activation)” value was inactive: 14%. On the same count and under the same terms, with `O=C(CCCCCN1CCN(c2ccccc2-c2ccccc2)CC1)NC1CCCc2ccccc21` (stereo not drawn) the figure was inactive: -51.3%; with `CCOC(=O)C(C)Oc1cccc2c(=O)n(CC(=O)NCc3ccc4c(c3)OCO4)ccc12` (stereo not drawn), 22.7%; with `Cc1ccccc1-n1nc2c(c1NC(=O)c1cccs1)CS(=O)(=O)C2`, 15.7%. Still for that read-out and setting: the value for `CC(=O)C1=C(O)C(=O)N(Cc2ccco2)C1c1ccccc1F` (stereo not drawn) was 17.5%; that for `CC(C)OCCCn1c(=O)c2ccccc2n2c(CCC(=O)NC3CCN(Cc4ccccc4)CC3)nnc12` was -3.01%. The same measure, in the same setting: with `COc1ccc(/C=N/Nc2ccc([N+](=O)[O-])cc2)cc1O` the figure was inactive: -36.3%. With `COc1cccc(CNC(=O)CN2C(=O)COc3ccc(S(=O)(=O)N4CCCCC4)cc32)c1`, the growth rescue (activation) was found to be 39.6%. On the same count and under the same terms, the value for `NC(=O)CN1C(=O)C(=O)N(Cc2cccc(Cl)c2)C1=O` was 26.4%. `CCOc1ccc(CCNC(=O)CN2C(=O)c3cccnc3Oc3ccc(Cl)cc32)cc1`: the growth rescue (activation) amounted to 15%.

With `CN(C)C(=O)c1cnc(Sc2ncc(C(F)(F)F)cc2Cl)n1C`, the growth rescue (activation) is 48.2%. As for `CCc1cc(Cn2nc(-c3ccccc3)cc2C(=O)NCc2cccs2)on1`, the Potency is active: 12.6 µM. With `Oc1cc(O)cc(/C=C/c2ccc(O)c(O)c2)c1`, the “growth rescue (activation)” value was inactive: -0.705%.
